Screen size: about 360,000 compounds; about 7,500 (2.1%) were called active. The shares of active, inactive and inconclusive entries below differ from those in the screen. Calls come from the whole dose curve; as a rule, active = well fitted cell-killing curve with a large enough effect; inconclusive = small, poorly fitted or top-dose-only effect, or effect the other way, or another doubt; inactive = no such curve, though single readings can be large or run the other way. Potencies of inconclusive entries are left out as doubtful fits.
Test: qHTS for induction of synthetic lethality in tumor cells producing 2HG: qHTS for the HT-1080-IDH1KD cell line;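 for activity, negative = toxicity: 0% = DMSO wells and -100% = cell-free medium wells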
Conditions: HT-1080 IDH1 knockdown viability, ATP luminescence, 48 h; activity, negative = toxicity: at 46.1 µM (top of the series) unless noted
Outline: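 Cytotoxicity counter-line: IDH1KD HT-1080, 48 h, CellTiter-Glo. Curves classed by r2, magnitude and activity.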
Potency is the fitted concentration of half-maximal effect; tags give direction and shape of the fitted curve.

Row | SMILES | Potency | activity, negative = toxicity
1 | CCOc1ccc(C(CC(=O)O)n2cnnn2)cc1OC (stereo unspecified) | inconclusive [rising, single point] | –
2 | COc1ccc(C(=O)NC(=S)N2CCCCC2)cc1 | active: 0.794 µM | –
3 | COc1ccccc1C(O)(c1ccccc1)C(CN1CCOCC1)c1ccccc1 (stereo unspecified) | – | inactive: -3.67%
4 | Cc1cccc(NC(=O)c2ccc([N+](=O)[O-])o2)n1 | inconclusive [cytotoxic, single point] | –
5 | COCCCNCCCCOc1ccc(OCc2ccccc2)cc1 | inconclusive [cytotoxic, single point] | –
6 | COc1cccc(NC(=O)Nc2ccccc2SC)c1 | – | inactive: -0.546%
7 | C=CCC[C@H](Cc1ccc(F)cc1)C(=O)OC[C@@H](NC(=O)[C@@H](CC=C)CC(=O)N(CCO)Cc1ccccc1)C(C)(C)C | inconclusive [cytotoxic, single point] | –
8 | COc1cc(C(C(=O)NC2CCCCC2)N(C(=O)Cc2c[nH]c3ccccc23)c2ccc(C)cc2)cc(OC)c1OC (stereo unspecified) | – | inactive: -10.7%
9 | COc1ccc(-c2cc3ccc(O)cc3oc2=O)cc1OC | inconclusive [cytotoxic, single point] | –
10 | O=C(CCc1ccccc1)NNC(=O)c1cc(Cl)ccc1O | inconclusive [cytotoxic, single point] | –
11 | Cc1ccc(O)c(C(=O)c2cnc3c(c2)CN(C)C(=O)N3)c1 | inconclusive [cytotoxic, single point] | –
12 | CCc1cc(C(=O)c2ccc(C)cc2)c(NC(=O)CCl)s1 | inconclusive [cytotoxic, single point] | –
13 | CC(=O)c1ccc(S(=O)(=O)NCCC(=O)NC2CCN(Cc3ccccc3)CC2)cc1 | – | inactive: 3.58%
14 | COc1ccc(NC(=O)C2CCN(C(=O)c3ccc(OC)cc3)CC2)cc1 | – | inactive: 10.6%
15 | Cc1c(NC(=O)c2cc(-n3cnnc3)ccc2Cl)cccc1-c1nc2ccccc2s1 | inconclusive [cytotoxic, single point] | –
16 | COc1cc(CN2CCC(C(=O)NC(c3ccc(-c4ccccc4)cc3)c3cnccn3)CC2)cc(OC)c1 (stereo unspecified) | active: 23.1 µM | –
17 | O=C(NC12CC3CC(CC(C3)C1)C2)c1cncc(Br)c1 | – | inactive: -2.58%
18 | Nc1ncnc2c1ncn2C1OC(COP(=O)(O)O)C(O)C1O (stereo unspecified) | inconclusive [cytotoxic, partial curve] | –

Row | SMILES | Potency | activity, negative = toxicity
19 | CN(C)c1ccc(NC(=S)Nc2ccc3c(c2)c(=O)n(C)n3-c2ccc(C(C)(C)C)cc2)cc1 | active: 18.4 µM | –
20 | O=C(OCCN(CCOC(=O)c1ccncc1)S(=O)(=O)c1cccs1)c1ccncc1 | – | inactive: 9.63%
21 | Cc1ccc(Cn2cnc3sc4c(c3c2=O)CCC4)c(C)c1 | inconclusive [cytotoxic, single point] | –
22 | Cc1cc(C)cc(NS(=O)(=O)c2ccc3oc(=O)ccc3c2)c1 | inconclusive [cytotoxic, partial curve] | –
23 | O=C(CCl)Nc1c2c(nn1-c1ccccc1)CSC2 | inconclusive [cytotoxic, single point] | –
24 | O=C(Cc1cccc(NC(=O)C2CCCN(C(=O)C3CCCCC3)C2)c1)Nc1cccc(C(=O)N2CCOCC2)c1 (stereo unspecified) | – | inactive: 11.8%
25 | COc1ccccc1/C=C(/C#N)C(=O)O | – | inconclusive: -37.6% [cytotoxic]
26 | CCN(CC)CCNC(=O)c1ccc(NC(=O)c2ccc(C(=O)c3ccccc3)cc2)cc1 | active: 20.6 µM | –
27 | CCCCOc1ccccc1C1CC(=O)NC2=C1C(=O)CCC2 (stereo unspecified) | active: 1.64 µM | –
28 | CCOC(=O)C(=O)N1CCC(C(=O)OCC)CC1 | – | inactive: 19.3%
29 | CCOC(=O)[C@]12CCCC=C1N(Cc1ccc3c(c1)OCO3)C(=O)[C@H](CC(=O)N1CCN(C(=O)c3ccco3)CC1)C2 | – | inactive: 7.52%
30 | COCc1nc2ccccc2n1Cc1ccccc1C | – | inactive: -1.97%
31 | O=C(Oc1c(CN2CCOCC2)cc(Cl)c2cccnc12)c1ccc(F)cc1 | inconclusive [cytotoxic, partial curve] | –
32 | CCC(C)NCCOCCOc1cc(C)c(Cl)c(C)c1 (stereo unspecified) | active: 20.6 µM | –
33 | O=C(CCN1C(=O)C2C3CCC(C3)C2C1=O)Nc1ccccc1Cl (stereo unspecified) | – | inactive: -1.25%
34 | Cn1c(=O)n(C)c2cc([N+](=O)[O-])c(N3CCN(C(=O)c4ccc(Cl)cc4)CC3)cc21 | inconclusive [cytotoxic, partial curve, poor fit] | –
35 | Cc1ccccc1Oc1cc(-n2ncc(Cl)c(Cl)c2=O)ncn1 | active: 7.31 µM | –
36 | O=C(Cc1ccc(Cl)cc1)Nc1ccc2oc(-c3ccncc3)nc2c1 | inconclusive [cytotoxic, partial curve] | –

Source: PubChem BioAssay AID686971 (National Center for Advancing Translational Sciences (NCATS), 2013)
